Measurements from the supplement of paper PMC3334620.
In all, about 33,000 sequences were measured (“E-score (-0.5 to 0.5)”: median about -0.054, highest 2% from about 0.35 on). The list shows a part of the results.

The sequences below were run against T1, Stb5 (UniProt P38699) (assay: PBM E-score (8-mer binding enrichment) (E-score (-0.5 to 0.5)); higher = stronger / more preferred TF binding; most listed sequences are background and not binding sites). Settings: protein concentration: 200 nM; construct: GST-full length.
T1 sequence: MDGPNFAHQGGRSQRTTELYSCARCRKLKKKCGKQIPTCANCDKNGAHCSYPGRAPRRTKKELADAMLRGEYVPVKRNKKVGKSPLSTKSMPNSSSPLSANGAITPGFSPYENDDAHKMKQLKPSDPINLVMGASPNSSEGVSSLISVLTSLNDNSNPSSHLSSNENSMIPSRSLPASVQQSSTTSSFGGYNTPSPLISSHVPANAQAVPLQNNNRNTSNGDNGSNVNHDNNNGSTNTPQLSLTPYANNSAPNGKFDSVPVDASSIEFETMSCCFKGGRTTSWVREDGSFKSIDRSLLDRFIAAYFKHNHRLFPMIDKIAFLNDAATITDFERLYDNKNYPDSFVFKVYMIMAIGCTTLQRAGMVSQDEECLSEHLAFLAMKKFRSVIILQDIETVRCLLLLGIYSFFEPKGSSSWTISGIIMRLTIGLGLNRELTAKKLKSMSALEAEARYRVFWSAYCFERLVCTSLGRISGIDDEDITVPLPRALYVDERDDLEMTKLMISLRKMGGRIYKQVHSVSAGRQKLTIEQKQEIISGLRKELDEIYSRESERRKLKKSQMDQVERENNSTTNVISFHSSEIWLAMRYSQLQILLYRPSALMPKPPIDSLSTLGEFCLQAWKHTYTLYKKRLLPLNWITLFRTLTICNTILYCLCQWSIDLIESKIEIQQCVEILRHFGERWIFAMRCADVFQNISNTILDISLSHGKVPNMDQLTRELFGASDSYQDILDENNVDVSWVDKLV
Outline: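 Universal all-10-mer Agilent arrays, double-stranded by primer extension on fresh or once-stripped slides, were probed with about 100-200 nM GST-tagged yeast transcription factors made by PURExpress. Fluorescent anti-GST detected bound protein, and masliner normalised the scans. E-scores from the Universal PBM Analysis Suite were given to each ungapped eight-base word pooled with its reverse complement.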

Sequence | PBM E-score
GGCTTCCA | -0.0805
ATGATAAC | -0.113
AGGTATGA | 0.00378
ATGCAACG | -0.0435
ACAACGTC | 0.00369
ATCGCCCG | 0.0987
ACCGGTCA | 0.227
CCAGAACG | -0.0165
AGCAGGCT | -0.16
CTGACTTA | -0.06
ACTTCTCT | -0.252
AATTGCCC | 0.0559
CTTACATC | -0.0854
TACCGTGA | 0.239
GAGACGGA | 0.307
CTTGAGTC | -0.164
ATAGAGCG | 0.0868
ATGGTGCA | -0.0962
ACTGTCAA | -0.249
CACCGGTA | 0.408
TATTCGAA | -0.238
CAGCTGTA | -0.131
ACGGCTCG | 0.0784
GTCAACAC | -0.0628
CAGAAAAC | -0.185

Sequence | PBM E-score
CTAGTCCC | 0.152
AATGTACT | -0.125
CAACAGAC | -0.0679
TGACGGCA | 0.276
CACTGGTA | -0.18
CCATCGTC | -0.0812
ATCACTAG | -0.114
GGTACACC | 0.0506
AATAGAAT | -0.187
GAGTCCAA | -0.182
GTACGCAC | -0.15
CCTGTACG | -0.0482
AGTGTCGG | 0.341
CACGTCGG | 0.341
CAATCGGA | 0.311
GACGTATA | 0.0282
ACGTCAGT | -0.218
CACGCCAA | -0.28
ATAAAAGC | -0.0068
GATGAGGC | -0.144
AGTGGTTC | -0.131
TTACCAAA | 0.047
GGGAGATA | -0.00859
AGTATGAT | -0.231
TCATCGAA | -0.0757

Sequence | PBM E-score
CCGATCGC | 0.223
CGAACACA | -0.00887
AGAGAATC | -0.19
GGCGAGCA | -0.114
CCGGTGAG | 0.144
GTCTAAAA | -0.00511
ACGTTTTG | -0.318
CGCGGTTA | 0.37
AAAGGTGA | -0.00033
GGATTGCA | -0.0987
GATGATAC | 0.148
TACATACA | -0.228
ATAAACGG | 0.22
AGAAAAGG | -0.103
GCTAATAA | -0.00014
ACCGTAGG | 0.254
CACCCCTG | -0.154
AATCGTCA | -0.0811
GCCCGCGC | 0.317
CAGGCAGG | -0.235
AATCGTGA | 0.0225
CCTATCCG | -0.109
CGGCGACG | 0.194
CGCGTTAA | 0.107
CTCAGTCC | -0.0145

Sequence | PBM E-score
CAACCATA | -0.171
CGCGTGCA | -0.102
CGAATCAA | 0.0248
CCGTGTAG | -0.071
GCGTAAGC | 0.0141
CAGCTATA | 0.0381
CGCTAAGA | 0.0527
ATGCATAG | -0.228
GAAGCGCA | 0.0833
GCCTCTAC | -0.118
ATAAGTTA | -0.0389
GGTAATAC | 0.327
AGGGTCAA | -0.2
CCAGCAGC | -0.12
ACCGATAA | 0.338
AGCCCTTA | -0.157
GTCGTAAC | -0.0598
CTGTAGTC | -0.0251
ACTAGCAG | -0.334
AGCTCTAC | -0.243
GAATTCCC | 0.189
CCTTGCCA | -0.122
ATACTAAG | -0.0743
ATGCTGCC | -0.0035
CCGAGAAA | 0.18

Sequence | PBM E-score
CCCTTTGA | -0.0311
AAACCTAG | -0.17
GCAGCCCA | -0.264
ATATAACC | 0.268
GCCGCACA | 0.206
AGTTTGGA | -0.153
AAAATATA | 0.0784
ATGCAAGG | -0.104
GCCAGGAC | -0.187
TAGGGACA | -0.0568
GGAAGAAA | -0.0947
AAGAAGGG | -0.124
GACCGTGA | 0.123
CACCCATC | -0.0507
AAAGCAAA | -0.197
AAACAGGT | -0.0257
CAATTAAG | 0.157
AGCTGTTC | -0.207
CTGTGGCC | -0.016
AATCTCCC | -0.0498
AAGTTCAA | -0.0137
GAGCCAAA | -0.0585
TCAACTCA | -0.0658
AATCAGGT | -0.0618
AGCTACCA | -0.194

Sequence | PBM E-score
GATTTGCC | 0.0681
CTATAAAG | 0.156
CCGTTACG | 0.271
GACGAGTC | -0.227
AGCGTAAC | 0.00827
AAAGTTGG | -0.378
AAAATGAT | -0.1
TAATGATA | -0.0791
GGTGCCAC | 0.148
CGCTGCGA | 0.135
CTTTCCCA | -0.119
ACGCTCTA | -0.117
CTCCGTCA | 0.297
AGTGGGTC | 0.0423
AGCGCAAG | -0.159
CCTGGCCC | -0.191
CTCAATCA | -0.00421
AGGTTGCC | -0.132
AATCTGCT | -0.0835
AGGCACCT | -0.0254
ACGTAACG | 0.0237
CTAAGTAA | -0.147
AGCGTGCG | 0.0857
CCATATAA | -0.211
CCGCCCTA | 0.234

Sequence | PBM E-score
AATACGAA | -0.142
GTAGAAGA | -0.259
CATTTAGC | 0.11
CACAACCC | -0.156
GAAGAGAC | -0.0478
AACAGCTA | -0.118
CACATAAG | -0.0854
GCAAAGGC | 0.115
ATTAGAAA | -0.0635
CACCGGGA | 0.256
AGTATACT | -0.317
AGCCAACT | -0.317
GAGCGTAA | 0.0282
ACGCCGAT | 0.35
GGAAGACC | 0.195
AACTGATT | -0.282
CAGGGAAC | -0.192
AATTCAGT | -0.22
AATACGCT | 0.0294
AAGAACCA | -0.153
AAATGTGC | 0.111
GGCTCCGA | 0.0871
TGCGACCA | -0.0953
CGTGCAGA | -0.0929
CCGTGTGA | 0.101

Sequence | PBM E-score
AATTAAGG | -0.0572
CATTCGAG | -0.136
TCTCGGAA | -0.0692
AGCCAAAG | -0.145
GATGTAGA | -0.0699
ATTCGGAC | 0.224
GGCACCAA | 0.208
ATCGGTCG | 0.155
ACTAATAT | 0.135
AACGCAAC | -0.18
GTAAATGA | 0.0964
AAAGCTCG | -0.16
GGTCTACA | -0.0107
AATTACAT | 0.00227
CGGGACAA | 0.214
CATATGGC | -0.0135
ACATGAAA | -0.261
CAGATGGC | -0.0723
GGTCACTA | -0.0402
ATTTGAGG | -0.0669
GTTGGTGA | -0.0441
GCTAACCC | -0.00973
CCCAGCAA | -0.134
GTCAAGGA | -0.0637
ATAGCTAG | -0.256

Sequence | PBM E-score
CGAGAGGA | -0.296
CGACGGTA | 0.352
CATTGCAG | -0.193
CCAGAGAC | -0.174
AGTTGACC | 0.0522
GATTTCTA | 0.168
ACGAATGG | -0.142
AATGCGCT | -0.125
CGCAACCA | 0.0261
CAACGCTA | -0.0671
CTTTGGGC | 0.19
ACGCACGG | 0.141
CAGGTGCC | -0.0602
GACTCATC | -0.21
ATTCGGTA | 0.145
AGATGGAC | 0.0541
GTCGATAA | -0.105
CAACTTGA | -0.00866
ATGGGGGA | -0.153
